Results as given in PubChem BioAssay AID1745853 (National Center for Advancing Translational Sciences (NCATS), 2022).
The list shows a part of the results. Further columns of the screen follow, without active or inactive calls.

How the values were obtained:
Test in all cases: Primary Screen for Target Class Profiling of Small Molecule Inhibitors of Methyltransferases
[1] = biological target: Glycine N-methyltransferase (Homo sapiens) (UniProt Q14749); details: purified enzyme, MTase-Glo SAH luminescence; measured here: GNMT inhibition; at 40 µM; stronger effect = lower value
Procedure, shortened: (§1)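 Each enzyme was reacted with SAM and its substrate, with compounds tested once at 40 uM; SAH formed was read by MTase-Glo luminescence.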

[2] = biological target: Guanidinoacetate N-methyltransferase (Homo sapiens) (UniProt Q14353); details: purified enzyme, MTase-Glo SAH luminescence; measured here: GAMT inhibition; at 40 µM; stronger effect = lower value
Procedure, shortened: as §1

[3] = biological target: Histamine N-methyltransferase (Homo sapiens) (UniProt P50135); details: purified enzyme, MTase-Glo SAH luminescence; measured here: HNMT inhibition; at 40 µM; stronger effect = lower value
Procedure, shortened: as §1

[4] = biological target: Nicotinamide N-methyltransferase (Homo sapiens) (UniProt P40261); details: purified enzyme, MTase-Glo SAH luminescence; measured here: NNMT inhibition; at 40 µM; stronger effect = lower value
Procedure, shortened: as §1

[5] = biological target: Phenylethanolamine N-methyltransferase (Homo sapiens) (UniProt P11086); details: purified enzyme, MTase-Glo SAH luminescence; measured here: PNMT inhibition; at 40 µM; stronger effect = lower value
Procedure, shortened: as §1
On the % scale 0 is the no-effect control and ±100 the full control effect.

Structure (SMILES)	activity change, negative = inhibition [1]	activity change, negative = inhibition [2]	activity change, negative = inhibition [3]	activity change, negative = inhibition [4]	activity change, negative = inhibition [5]
CN1C2CCC1CC(OC(c1ccccc1)c1ccccc1)C2 (stereo not given)	2.18%	9.05%	-37.4%	-18.3%	3.61%
COC(=O)c1ncn2c1C(=O)N(Cc1cccnc1)C(C)(C(=O)NCc1ccccc1OC)C2 (stereo not given)	0.112%	1.5%	13.1%	10.1%	10%
O=C(C1CCc2nnc(-c3ccc(Cl)cc3Cl)n21)N1CCCC1 (stereo not given)	-6.71%	-7.8%	-3.38%	-12.3%	-3.89%
CC(C)OCCCNC(=O)c1cc2n(n1)CC(C)(C(=O)NCc1ccccc1)N(C)C2=O (stereo not given)	-1.32%	-3.18%	3.62%	-2.87%	-4.64%
O=C1NC(=NC2CCCCC2)C2(CCN(Cc3ccccc3)C2)N1c1cccnc1 (stereo not given)	-5.83%	-7.73%	-2.22%	-20%	-4.74%
CCC1C(=O)N(C)CCN1C(=O)c1coc(COc2ccc3c(c2)OCO3)n1 (stereo not given)	-6.17%	-5.25%	-3%	-7.95%	-3.32%
CCCN1C(=O)c2c(C(=O)NCCC3=CCCCC3)ncn2CC1(C)C(=O)NCc1ccc(F)cc1 (stereo not given)	1.06%	0.865%	8.93%	-1.14%	7.98%
CC1(CO)CCCC2(C)C1C(OC(=O)c1ccccc1)C=C1C(=O)OCC12O (stereo not given)	0%	4.13%	2.66%	-11.2%	4.87%
O=c1cc(-c2ccccn2)oc2c(Nc3cccnc3)nccc12	-26.2%	-5.58%	-7.69%	-11.4%	-5.2%
Cc1nc2cccnc2n1CC1CCCN(S(=O)(=O)c2ccc3c(c2)OCCO3)C1 (stereo not given)	-72.2%	1.09%	-2.32%	-7.58%	1.51%
C=CC(C)(C)c1[nH]c2cc3c(cc2c1CC1NC(=O)C2CCCN2C1=O)C=CC(C)(C)O3 (stereo not given)	0%	7.68%	6.91%	-10.4%	7.12%
COc1cccc(C(=O)Cn2nc3n(C)c(=O)c4ccc(C(=O)NC5CCCC5)cc4n3c2=O)c1	4.96%	0%	2.83%	6.38%	5.83%
O=C(NCC1CCOCC1)C1COc2ccccc2O1 (stereo not given)	-2.19%	-6.16%	-0.198%	-8.43%	-9.36%
Cc1cc(NC(=O)C2CCN(c3cc(C(F)(F)F)ncn3)CC2)ccc1Br	-11.9%	-6.89%	-2.99%	-12.7%	-8.68%
Cc1ccc(C)c(N2CCN(C(=O)CCc3nnc4n(Cc5ccc(F)cc5)c(=O)c5ccccc5n34)CC2)c1	-2.01%	3.15%	3.33%	1.52%	-3.19%
CC1(C(=O)NC2CCCC2)Cn2c(cc3ccccc32)C(=O)N1Cc1ccco1 (stereo not given)	-8.34%	4.12%	0.032%	-3.96%	-0.996%
CC(C)c1ccc2c(c1)C(=O)CC1[C@@](C)(C(=O)O)CCC[C@]21C (stereo not given in full)	-2.51%	-3.24%	4.92%	-14.9%	1.33%
Cc1ccc(C(=O)CSc2nnc3n(CC(C)C)c(=O)c4ccc(C(=O)NC(C)C)cc4n23)c(C)c1	1.85%	2.43%	3.93%	-4.08%	-3.11%
CCn1ccc(C(=O)N2CCC3(CC2)CC(N(C(=O)c2ccccc2)C2CC2)CCO3)n1 (stereo not given)	-1.98%	0.32%	-3.36%	-3.9%	-4.15%

Structure (SMILES)	activity change, negative = inhibition [1]	activity change, negative = inhibition [2]	activity change, negative = inhibition [3]	activity change, negative = inhibition [4]	activity change, negative = inhibition [5]
Cc1nn(C)c(C)c1CCC(=O)NC1CCc2nnc(C3CC3)n2CC1 (stereo not given)	-2.62%	-1.03%	1.47%	-1.04%	-4.83%
CC(=O)c1c(O)cc2cccc3c2c1CC(C)(O)O3 (stereo not given)	-0.183%	-7.4%	-9.71%	-19%	-11.3%
CC(C)c1ccc(NC(=O)Cn2cnc3c2c(=O)n(C)c(=O)n3C)cc1	-1.64%	-1.81%	9.39%	-20.3%	0.133%
CC1CCCCN1CCN1C(=O)c2cc3ccccc3n2CC1(C)C(=O)NC1CCCCCCC1 (stereo not given)	-3.6%	0.749%	-8.02%	-13.9%	-7.22%
Cc1ccc(CNC(=O)CN(C)S(=O)(=O)c2ccc3[nH]c4c(c3c2)CCCC4)cc1	-3.97%	3.03%	2.04%	-2.43%	-0.484%
CSc1ccc(CCNC(=O)C(C)n2ccc3cc(S(=O)(=O)N4CCCC4)ccc32)cc1 (stereo not given)	-3%	2.36%	-6.84%	-3.6%	-3.31%
CCCn1c(=O)c2ccc(C(=O)NC(C)C)cc2n2c(=O)n(CC(=O)NC3CCCC3)nc12	7.76%	1.29%	5.26%	9.35%	8.15%
C=C1C(OC(C)=O)C(=O)C2C(C)(C)C(O)CCC2(C)C1CC(OC(C)=O)/C(C)=C/COC(C)=O (stereo not given)	-3.02%	-5.94%	9.39%	-17.6%	-10.7%
CCc1cc2c(cc3n2CC(C)(C(=O)NC2CCCCCC2)N(CCN2CCOCC2)C3=O)s1 (stereo not given)	1.18%	4.73%	-0.864%	-3.2%	-0.202%
CC1(C(=O)NC2CCCCCCC2)Cn2c(ccc2-c2ccco2)C(=O)N1Cc1ccccn1 (stereo not given)	-11.4%	2.75%	-0.527%	-11.5%	-7%
CCOc1ccc(NC(=O)N2CCn3cccc3C2C(C)C)cc1 (stereo not given)	6.86%	0%	3.71%	2.74%	4.35%
CCC(CC)n1ccc2c(C(=O)NCc3c(C)cc(C)[nH]c3=O)cc(C#N)cc21	1.3%	0.316%	2.29%	-26.4%	-18.4%
COc1ccc(C(=O)NCCc2ncc(C)n2C2CC2)cn1	-0.934%	-1.55%	-13.9%	-9.08%	-2.62%
CC(=O)O[C@@](C)(C(=O)/C=C/C(C)(C)O)[C@H]1[C@H](O)C[C@@]2(C)[C@@H]3CC=C4[C@@H](C=C(O)C(=O)C4(C)C)[C@]3(C)C(=O)C[C@]12C	-3.01%	-6.64%	7.23%	-18.4%	1.26%
CC1(C(=O)NC2CCCCC2)Cn2nc(-c3cccs3)cc2C(=O)N1Cc1ccccc1Cl (stereo not given)	0.847%	7.94%	8.13%	5.95%	2.04%
Cc1ccc(C)c(NC(=O)CNS(=O)(=O)c2ccc3[nH]c(=O)oc3c2)c1	6.49%	5.2%	6.2%	-7.7%	3.02%
Cc1cccnc1C(=O)N[C@@H]1CN(S(C)(=O)=O)C[C@H]1CN(C)C	-3.14%	-4.67%	-0.958%	-4.7%	-1.55%
CSc1ccc(CNC(=O)c2cc3n(n2)CC(C)(C(=O)NC2CCCC2)N(C)C3=O)cc1 (stereo not given)	8.25%	-2.02%	2.66%	-0.957%	-4.03%
N#Cc1cccc(C(=O)N2C[C@@H](Oc3cccnc3)C[C@H]2C(=O)NC2CC2)c1	-5.05%	-9.42%	-2.9%	-13.7%	-6.47%
